The whole screen tested about 110,000 compounds, of which about 230 (0.21%) showed an effect of 50% or more. The list shows a part of the results.
Target: DPAP1 (Plasmodium falciparum, UniProt Q8IIJ9)
Experiment: primary screen, percent inhibition; read by cleavage of a fluorogenic dipeptide substrate; higher = more effect of the substance
Design: species or system P. falciparum D10 trophozoite lysates; single well
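Also: 30 min substrate incubation versus DMSO and 10 µM JCP410 controls.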

Chain of DPAP1 (Q8IIJ9 whole entry, looked up): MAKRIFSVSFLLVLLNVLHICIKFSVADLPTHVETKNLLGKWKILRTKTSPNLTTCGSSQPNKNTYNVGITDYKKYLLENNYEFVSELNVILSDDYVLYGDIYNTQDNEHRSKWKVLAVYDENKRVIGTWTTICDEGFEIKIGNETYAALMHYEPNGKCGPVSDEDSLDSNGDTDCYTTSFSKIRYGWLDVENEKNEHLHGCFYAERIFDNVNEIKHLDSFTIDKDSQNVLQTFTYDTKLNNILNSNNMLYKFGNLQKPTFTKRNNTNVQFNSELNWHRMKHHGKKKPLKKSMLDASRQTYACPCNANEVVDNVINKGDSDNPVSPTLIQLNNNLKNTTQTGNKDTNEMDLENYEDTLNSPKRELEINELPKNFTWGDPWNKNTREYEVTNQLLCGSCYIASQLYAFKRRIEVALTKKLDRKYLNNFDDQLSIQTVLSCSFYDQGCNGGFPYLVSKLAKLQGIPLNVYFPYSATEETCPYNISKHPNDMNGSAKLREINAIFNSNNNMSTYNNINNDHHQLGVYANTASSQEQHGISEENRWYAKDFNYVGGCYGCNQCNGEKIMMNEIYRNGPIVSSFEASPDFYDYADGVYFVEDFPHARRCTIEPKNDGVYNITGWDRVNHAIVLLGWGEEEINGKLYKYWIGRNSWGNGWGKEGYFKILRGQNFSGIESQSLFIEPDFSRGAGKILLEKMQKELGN

Going from `CCC(C)NC(=O)CCc1c(C)nc2nc(C)nn2c1C` (centres unmarked) to `Cc1ccc(NC(=O)CCc2c(C)nc3ncnn3c2C)nc1`, the “% Inhibition @ 10 uM” value rises from -2.25% to -0.465%.

Going from `COC(=O)c1ccccc1NC(=O)C(C)Oc1cccc(C)c1` (centres unmarked) to `Cc1cccc(C(=O)N2CCc3ccccc32)c1`, the “% Inhibition @ 10 uM” value falls from 0.161% to -2.54%.

First: O=C(Nc1ccccc1)N(CCCN1CCOCC1)Cc1cccc2ccccc12
Second: O=C(CCCc1nnc2n3nc(-c4ccccc4)nc3c3ccccc3n12)N1CCOCC1
The “% Inhibition @ 10 uM” value of the first is lower: 0.316% for the first, 0.44% for the second.

First: O=C(COc1ccc(Br)cc1)N1CCCCC1
Second: COC(=O)c1ccc(CN2CCCCC2C)cc1 (centres unmarked)
The “% Inhibition @ 10 uM” value of the first is higher: 0.634% for the first, -1.75% for the second.

First: O=C(C(C(=O)N1CCCCC1)C12CC3CC(CC(C3)C1)C2)N1CCCCC1
Second: O=C(c1cc(S(=O)(=O)N2CCCCC2)ccc1F)N1CCCCC1
The “% Inhibition @ 10 uM” value of the first is higher: 6.94% for the first, -5.64% for the second.

First: Cn1c(=O)n(Cc2ccc(Cl)cc2)c(=O)c2c1nc(NCCO)n2Cc1ccccc1
Second: Cn1c(=O)n(Cc2ccccc2)c(=O)c2c1nc(N1CCOCC1)n2Cc1ccccc1
The “% Inhibition @ 10 uM” value of the first is lower: 3.93% for the first, 5.17% for the second.

First: COc1cc(/C=C2/NC(=O)N(CC(=O)Nc3ccc(C)cc3)C2=O)cc(Cl)c1O
Second: CCOc1cc(C2C(C(=O)OC)=C(C)N=C3C2=C(O)c2ccccc23)cc(Cl)c1OC (centres unmarked)
The “% Inhibition @ 10 uM” value of the first is higher: 3.5% for the first, -1.33% for the second.

First: O=C1NC(c2cccs2)C(C(=O)c2ccccc2)C(O)(C(F)(F)F)N1 (centres unmarked)
Second: O=C1NC=C(c2ccccc2)C(c2ccccc2)N1 (centres unmarked)
The “% Inhibition @ 10 uM” value of the first is lower: -8.37% for the first, -4.58% for the second.

Compared with `COc1ccccc1C1C(C#N)=C(N)Oc2[nH]nc(C(C)(C)C)c21` (centres unmarked), `COc1ccccc1C1C(C#N)=C(N)Oc2[nH]nc(-c3cccc4ccccc34)c21` (centres unmarked) is higher in “% Inhibition @ 10 uM” value: 4.52% for the first, 11.5% for the second.

Compared with `COc1ccc(-c2cc(C(=O)O)c3ccccc3n2)c(OC)c1`, `COc1ccc(-c2cc(N)n(S(=O)(=O)Cc3ccccc3)n2)c(OC)c1` is higher in “% Inhibition @ 10 uM” value: -2.63% for the first, -2.19% for the second.

Compared with `O=C(Nc1cnn(Cc2ccc(F)cc2)c1)c1cc(-c2cccc(Cl)c2)on1`, `O=C(Nc1cccc(-c2nc3ccccc3s2)c1)c1cc(Cl)cc(Cl)c1` is higher in “% Inhibition @ 10 uM” value: -4.43% for the first, 6.83% for the second.

Compared with `Cc1cccc(CN2CCN(c3cccc(C(F)(F)F)c3)CC2)c1`, `COc1cccc(C(=O)N2CCN(Cc3ccncc3)CC2)c1` is higher in “% Inhibition @ 10 uM” value: -0.197% for the first, 7.1% for the second.

Going from `COc1ccc(Oc2c(C(F)(F)F)oc3c(CN4CCCCC4C)c(O)ccc3c2=O)cc1` (centres unmarked) to `COc1ccc(/C=C2\COc3ccc(F)cc3C2=O)cc1`, the “% Inhibition @ 10 uM” value falls from 0.343% to -3.79%.

Going from `O=C1/C(=C\c2cc3c(cc2Cl)OCO3)N2CCC1CC2` to `O=C(Cn1ccc2ccccc2c1=O)N1CCN(Cc2ccc3c(c2)OCO3)CC1`, the “% Inhibition @ 10 uM” value falls from 0.751% to -6.13%.

Compared with `COc1ccc(S(=O)(=O)Cc2ccc(C(=O)N3CCOCC3)o2)cc1`, `COc1ccc(-c2cc(C(=O)N3CCN(Cc4ccccc4)CC3)no2)cc1` is lower in “% Inhibition @ 10 uM” value: 3.57% for the first, 3.2% for the second.

Going from `CC1CCCC(C)N1CCCNC(=O)c1cnn(-c2ccccc2)c1-n1cccc1` (centres unmarked) to `Cc1ccccc1CNC(=O)c1cnn(-c2ccccc2)c1-n1cccc1`, the “% Inhibition @ 10 uM” value falls from -1.58% to -3.47%.

First: CC1CCCC(C)N1CCCNC(=O)c1nn(C)c2c1CS(=O)(=O)c1ccccc1-2 (centres unmarked)
Second: CC1CCCN(S(=O)(=O)c2ccc3nc(O)cc(C(=O)NCc4ccccc4Cl)c3c2)C1 (centres unmarked)
The “% Inhibition @ 10 uM” value of the first is higher: 2.34% for the first, 2.05% for the second.

Compared with `Cc1c(Cl)cccc1NC(=O)Cc1ccccc1`, `CN(Cc1ccccc1)C(=O)C1CCN(S(=O)(=O)c2ccc(Cl)cc2)CC1` is higher in “% Inhibition @ 10 uM” value: -0.127% for the first, 2.17% for the second.

Compared with `O=c1oc2ccccc2cc1-c1nc(-c2cccnc2)no1`, `O=C(NCc1cccnc1)c1cc(-c2ccco2)on1` is lower in “% Inhibition @ 10 uM” value: 4.51% for the first, -0.0541% for the second.

Going from `Cn1c(-c2ccccc2)c(-c2ccccc2)s/c1=N\C(=O)c1cccnc1` to `Nc1cc(-c2ccccc2)nn1-c1ccc(C(=O)O)cc1`, the “% Inhibition @ 10 uM” value falls from 3.58% to -3.5%.

Going from `COc1ccc(-c2nnc3n(CCCOC(C)C)c(=O)c4ccccc4n23)c(OC)c1` to `COc1ccc(-c2nc(CS(=O)CC(=O)NC(C)c3ccccc3)c(C)o2)cc1OC` (centres unmarked), the “% Inhibition @ 10 uM” value falls from -1.72% to -2.85%.

Going from `COc1cccc(CNc2nc3c(S(=O)(=O)c4ccc(Cl)cc4)nnn3c3ccsc23)c1` to `COc1ccc2ncc(S(=O)(=O)c3ccc(Cl)cc3)c(N3CCN(C)CC3)c2c1`, the “% Inhibition @ 10 uM” value falls from -4.95% to -10.2%.

First: CN1C(=O)C(=Cc2ccc(SCc3ccc(Cl)cc3)o2)C(=O)N(C)C1=O
Second: CC1=C(C#N)C(c2ccc(OCc3ccc(Cl)cc3)cc2)C2=C(O)CCCC2=N1 (centres unmarked)
The “% Inhibition @ 10 uM” value of the first is lower: -7.13% for the first, 4.09% for the second.

First: CC(NC(=O)[C@H](Cc1c[nH]c2ccccc12)NC(=O)OC(C)(C)C)c1ccccc1 (some centres unmarked)
Second: CC(C)CCN(Cc1ccco1)C(=O)c1oc(=O)c2ccccc2c1-c1ccccc1
The “% Inhibition @ 10 uM” value of the first is lower: -3.96% for the first, 0.66% for the second.

Compared with `N#Cc1cn[nH]c1NCc1ccccc1O`, `Oc1ccccc1CNC1CCCCC1` is lower in “% Inhibition @ 10 uM” value: 4.57% for the first, -1.56% for the second.

Compared with `CCN(CC)CCNC(=O)CCCCn1c(=S)[nH]c2c([nH]c3ccc(OC)cc32)c1=O`, `Cc1nn(C)c2c1c(C(F)(F)F)cc(=O)n2CC(=O)NCCc1ccccc1` is higher in “% Inhibition @ 10 uM” value: -0.704% for the first, 3.66% for the second.

Compared with `CCOC(=O)c1ccc2c(c1)C1C=CCC1C(C(=O)O)N2` (centres unmarked), `CCOC(=O)c1cc(-c2ccc(C)cc2)n(CCC(=O)NC2CCCCC2)c1C` is lower in “% Inhibition @ 10 uM” value: 7.96% for the first, -1.66% for the second.

Going from `CCCc1nn(-c2nc3ccccc3s2)c(O)c1/C(C)=N/CCO` to `Fc1ccc(-c2cc(-c3nc4c5ccccc5ncn4n3)[nH]n2)cc1`, the “% Inhibition @ 10 uM” value rises from -2.15% to 3.54%.

Compared with `Cc1c(NC(=O)c2cccnc2C(=O)O)cccc1C(=O)O`, `C/C(=N/N=C(/C)c1cc(C)ccc1OCC(=O)O)c1cc(C)ccc1OCC(=O)O` is higher in “% Inhibition @ 10 uM” value: 0.24% for the first, 1.27% for the second.

Compared with `CSc1nsc(SC)c1NC(=O)OCc1ccccc1`, `CC1(C)CC(=O)C2=C(C1)OC(N)=C(C#N)C2Cc1ccccc1` (centres unmarked) is lower in “% Inhibition @ 10 uM” value: 29.6% for the first, 0.385% for the second.

First: O=C(Nc1sc2c(c1CN1CCOCC1)CCC2)c1ccc(F)cc1
Second: CC(=O)Nc1sc2c(c1CN1CCCCC1)CCCC2
The “% Inhibition @ 10 uM” value of the first is higher: 6.1% for the first, -6.68% for the second.

Going from `CC1CCN(C(=O)Cn2cc(S(=O)(=O)N3CCCC3)c(S(=O)(=O)N3CCCC3)c2)CC1` to `O=C(O)[C@H]1CCCC[C@H]1C(=O)Nc1ccc(S(=O)(=O)N2CCCCC2)cc1`, the “% Inhibition @ 10 uM” value falls from 4.83% to -0.898%.

First: CCn1cc(C(=O)Nc2ccc(Br)cc2C)cn1
Second: COc1ccc(CNC(=O)c2ccc(Cn3cc(Br)cn3)o2)cc1
The “% Inhibition @ 10 uM” value of the first is lower: -5.1% for the first, 0.413% for the second.

Compared with `CC(=O)N1CCN(CCN2C(=O)C3C4c5ccccc5C(c5ccccc54)C3C2=O)CC1` (centres unmarked), `CC1CCN(C(=O)N2c3ccccc3Sc3ccccc32)CC1` is lower in “% Inhibition @ 10 uM” value: 1.64% for the first, -0.496% for the second.

First: COc1ccc(-c2ccc(Cc3nc(Cc4ccccc4)no3)cc2)cc1
Second: COc1ccc(C(=O)C(OC(=O)c2ccncc2)c2ccccc2)cc1 (centres unmarked)
The “% Inhibition @ 10 uM” value of the first is higher: 4.23% for the first, -0.273% for the second.

Going from `COc1ccc2nc(C)c(C(N)=O)cc2c1` to `COc1cc(OC)c(NC(=O)c2cccs2)cc1Cl`, the “% Inhibition @ 10 uM” value falls from 1.76% to -0.711%.

Going from `COc1ccc(-c2cc3c4c(C)n(-c5ccc(OC)cc5)c(C)c4c(C)nn3c2)cc1` to `COC(=O)C1=CN(Cc2ccc(OC)c(OC)c2)C=C(C(=O)OC)C1c1ccc(O)c(OC)c1`, the “% Inhibition @ 10 uM” value rises from -1.15% to 1.86%.

Compared with `COc1ccccc1/C=C/c1nn2c(-c3cccc(Cl)c3)nnc2s1`, `CC1(C(=O)Nc2ncc(Cc3cccc(Cl)c3)s2)Cc2ccccc2C(=O)O1` (centres unmarked) is lower in “% Inhibition @ 10 uM” value: 2.89% for the first, 2.57% for the second.

First: CC(C)C[C@H](NC(=O)c1ccc(-c2c(Cl)cccc2Cl)cc1Cl)C(=O)NCC#N
Second: CCCC[C@H](NC(=O)[C@H](CC(C)C)NC(=O)[C@H](CC(C)C)NC(=O)OCc1ccccc1)C(=O)CO
The “% Inhibition @ 10 uM” value of the first is lower: -1.82% for the first, 2.22% for the second.

Going from `Cc1nonc1OCC12CC3CC(CC(C3)C1)C2` to `CCOC(=O)N1CCN(C(=O)c2cc(C)no2)CC1`, the “% Inhibition @ 10 uM” value falls from 1.74% to -0.0115%.

Going from `Oc1cccc(/C=C/c2ccc3cccc(O)c3n2)c1` to `N#C/C(=C\c1ccc(Cl)cc1)c1nc(-c2ccc([N+](=O)[O-])cc2)cs1`, the “% Inhibition @ 10 uM” value rises from -1.52% to 5.64%.

Going from `CCCCc1ccc(S(=O)(=O)C(C)(C)C)cc1` to `CC(C)(C)C(=O)Nc1nnc(-c2ccc(Cl)cc2Cl)s1`, the “% Inhibition @ 10 uM” value falls from -2.51% to -3.02%.

Going from `CCOC(=O)c1c(C)oc2ncnc(N3CCC(C(N)=O)CC3)c12` to `Cc1ccc(-n2cc(-c3ccccc3)c3c(N4CCN(CCO)CC4)ncnc32)cc1Cl`, the “% Inhibition @ 10 uM” value rises from 0.0065% to 7.63%.

Going from `N#CC1=C(SCC(=O)Nc2cc(Cl)cc(Cl)c2)NC(=O)CC1c1cccs1` (centres unmarked) to `Cc1ccc2c(c1)-c1onc(C(=O)N3CCCCC3c3cccnc3)c1CO2` (centres unmarked), the “% Inhibition @ 10 uM” value rises from -4.48% to 1.11%.

Going from `COc1cc(OC)c(OC)cc1/C=C1\N=C(c2cccc(Br)c2)OC1=O` to `COc1cc(OC)c(CNC2CCCCC2C)cc1Br` (centres unmarked), the “% Inhibition @ 10 uM” value rises from -19.6% to 1.13%.

First: CC(=O)Nc1ccc(NC(=O)C2(c3ccccc3)CCCC2)cc1
Second: CC(C)(c1ccccc1)c1ccc(OCC(=O)Nc2nc[nH]n2)cc1
The “% Inhibition @ 10 uM” value of the first is lower: -3.76% for the first, 0.611% for the second.

Compared with `Cc1ccc(CN(C(=S)NCC(=O)NCc2ccco2)C2CCCCC2)cc1`, `Cc1nn(-c2ccc(F)cc2)c(-n2cccc2)c1C(=O)N1CCC(C)CC1` is lower in “% Inhibition @ 10 uM” value: 1.16% for the first, -3.54% for the second.

Compared with `CC(NC(=O)C1CCC(C/N=c2/c(N3CCCC3)c(O)c2=O)CC1)c1ccccc1` (centres unmarked), `OC(CN1CCOCC1)Cn1c(C(F)(F)F)nc2ccccc21` (centres unmarked) is higher in “% Inhibition @ 10 uM” value: -2.17% for the first, 0.145% for the second.

First: CCSc1sc(CC)cc1C(=O)O
Second: CCC1CCc2c(sc(NC(=O)CCC(=O)O)c2C(N)=O)C1 (centres unmarked)
The “% Inhibition @ 10 uM” value of the first is higher: -0.128% for the first, -18.6% for the second.
